Reference: article PMC4336329 (PLoS ONE, 2015)
Hit rate of the full screen: of about 310,000 compounds, about 14,000 (4.5%) showed an effect of 50% or more. Effects have a minus sign here. Some of the results follow.

Target: human ether-à-go-go-related gene (hERG) potassium channel (human, UniProt Q12809)
Assay: primary screen, population patch clamp on CHO cells stably expressing hERG
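Further: peak tail current of the secondary pulse compared with the same well before compound.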

human ether-à-go-go-related gene (hERG) potassium channel, sequence (Q12809 whole entry, looked up): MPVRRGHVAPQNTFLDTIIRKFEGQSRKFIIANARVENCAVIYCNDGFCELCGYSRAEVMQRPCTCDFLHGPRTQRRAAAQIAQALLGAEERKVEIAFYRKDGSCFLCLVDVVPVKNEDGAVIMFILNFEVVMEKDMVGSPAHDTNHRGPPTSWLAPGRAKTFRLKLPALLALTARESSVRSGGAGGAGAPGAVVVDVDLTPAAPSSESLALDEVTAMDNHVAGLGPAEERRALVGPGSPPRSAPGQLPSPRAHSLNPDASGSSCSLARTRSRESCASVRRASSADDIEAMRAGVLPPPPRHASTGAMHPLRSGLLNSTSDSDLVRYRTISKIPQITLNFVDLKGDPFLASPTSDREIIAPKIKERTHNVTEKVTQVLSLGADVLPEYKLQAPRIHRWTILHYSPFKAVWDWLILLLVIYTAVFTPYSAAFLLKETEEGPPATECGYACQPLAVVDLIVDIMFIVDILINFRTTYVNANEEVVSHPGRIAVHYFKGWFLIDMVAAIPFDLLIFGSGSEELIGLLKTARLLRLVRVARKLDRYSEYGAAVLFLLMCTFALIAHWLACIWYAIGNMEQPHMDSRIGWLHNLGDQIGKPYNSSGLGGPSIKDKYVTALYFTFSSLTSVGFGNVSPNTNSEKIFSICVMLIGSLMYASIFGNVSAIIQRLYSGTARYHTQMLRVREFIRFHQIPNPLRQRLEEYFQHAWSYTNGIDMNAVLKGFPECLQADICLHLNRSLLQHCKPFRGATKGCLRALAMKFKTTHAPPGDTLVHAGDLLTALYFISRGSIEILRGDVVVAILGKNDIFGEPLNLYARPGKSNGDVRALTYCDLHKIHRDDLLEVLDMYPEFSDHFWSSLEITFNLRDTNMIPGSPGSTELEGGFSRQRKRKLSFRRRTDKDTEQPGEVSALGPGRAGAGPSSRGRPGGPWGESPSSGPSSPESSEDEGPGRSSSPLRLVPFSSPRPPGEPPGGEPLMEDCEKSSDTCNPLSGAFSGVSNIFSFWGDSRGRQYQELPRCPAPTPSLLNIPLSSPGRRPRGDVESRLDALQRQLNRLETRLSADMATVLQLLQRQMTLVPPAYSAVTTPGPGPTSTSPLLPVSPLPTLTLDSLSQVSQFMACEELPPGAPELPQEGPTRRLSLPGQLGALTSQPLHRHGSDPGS

**Q.** How did the “hERG current change (%, negative = inhibition) at 10uM” value turn out when `COc1ccc2c(c1)[nH]c1c(=O)n(CCCN3CCOCC3)cnc12` was run?
**A.** -3.98%

**Q.** How did the “hERG current change (%, negative = inhibition) at 10uM” value turn out when `Cc1ccc(SCC(=O)NC2CCCCCC2)cc1` was run?
**A.** -1.43%

**Q.** With `CCN(CC)C(=O)CSc1nnc(-c2cccs2)n1Cc1ccco1` as the compound, how does the “hERG current change (%, negative = inhibition) at 10uM” value read?
**A.** -11%

**Q.** How did the “hERG current change (%, negative = inhibition) at 10uM” value turn out when `Cc1ccc(-c2nc(CS(=O)CC(=O)NCCN(CC(C)C)CC(C)C)c(C)o2)cc1` (stereo not drawn) was run?
**A.** -19.4%

**Q.** For `CCOC(=O)N1CCC(N(CCN(C)C)C(=S)Nc2ccc(OCC)cc2)CC1`, which “hERG current change (%, negative = inhibition) at 10uM” value is on record?
**A.** -10.3%

**Q.** With `CN(C)c1ccc(/C=N/NC(=O)CNC(=O)/C=C/c2ccco2)cc1` as the compound, how does the “hERG current change (%, negative = inhibition) at 10uM” value read?
**A.** -9.23%

**Q.** `COc1cc(C(=O)NCC(c2ccco2)N(C)C)cc(OC)c1OC` (stereo not drawn) was tested. Which “hERG current change (%, negative = inhibition) at 10uM” value did it give?
**A.** -5.76%

**Q.** How did the “hERG current change (%, negative = inhibition) at 10uM” value turn out when `O=C(CSc1nc2ccccc2s1)Nn1cnnc1` was run?
**A.** -10.8%

**Q.** How did the “hERG current change (%, negative = inhibition) at 10uM” value turn out when `COc1cccc(/C=C2\Sc3ccc(C(=O)NCC4CCCO4)cc3N(C)C2=O)c1` (stereo not drawn) was run?
**A.** -19.9%

**Q.** With `Cc1ccc(OCC(=O)N2CCc3ccccc3C2)c(Br)c1` as the compound, how does the “hERG current change (%, negative = inhibition) at 10uM” value read?
**A.** 0.848%

**Q.** With `COc1ccccc1OCC(=O)N/N=C/c1c(O)ccc2ccccc12` as the compound, how does the “hERG current change (%, negative = inhibition) at 10uM” value read?
**A.** 4.13%

**Q.** How did the “hERG current change (%, negative = inhibition) at 10uM” value turn out when `O=C(NN=C1CCN(Cc2ccccc2)CC1)c1ccccc1` was run?
**A.** 7.78%

**Q.** How did the “hERG current change (%, negative = inhibition) at 10uM” value turn out when `C=CCNC(=S)NNc1ncnc2sc3c(c12)CC(C)(C)OC3` was run?
**A.** 11%

**Q.** With `O=C(NCC1CCN(c2ccc(S(=O)(=O)N3CCOCC3)cc2)CC1)Nc1ccccc1` as the compound, how does the “hERG current change (%, negative = inhibition) at 10uM” value read?
**A.** 10.4%

**Q.** `COc1ccc(Cl)cc1NS(=O)(=O)c1c(C)[nH]c(C)c1C(=O)N1CCCCC1` was tested. Which “hERG current change (%, negative = inhibition) at 10uM” value did it give?
**A.** -3.77%

**Q.** `CCC(C)Sc1cc(-c2nc3ccccn3c2NC2CCCCC2)ccc1OC.O=C(O)C(F)(F)F` (stereo not drawn) was tested. Which “hERG current change (%, negative = inhibition) at 10uM” value did it give?
**A.** 0.241%

**Q.** How did the “hERG current change (%, negative = inhibition) at 10uM” value turn out when `CSCCC(NC(N)=O)C(=O)Nc1ccc2ccccc2c1` (stereo not drawn) was run?
**A.** 28%

**Q.** For `CC(C)(C)NC(=O)CSc1nnc(Cc2ccc3c(c2)OCO3)n1C1CCCCC1`, which “hERG current change (%, negative = inhibition) at 10uM” value is on record?
**A.** 9.73%

**Q.** `O=C(N=C1SC2CS(=O)(=O)CC2N1c1cc(Cl)ccc1Cl)C1CCCO1` (stereo not drawn) was tested. Which “hERG current change (%, negative = inhibition) at 10uM” value did it give?
**A.** -8.6%

**Q.** With `COc1cc(C(=O)NCc2cn3ccccc3n2)cc(OC)c1OC` as the compound, how does the “hERG current change (%, negative = inhibition) at 10uM” value read?
**A.** -5.15%

**Q.** For `OC(COC1CCCCC1)CN1CCN(c2ccccc2)CC1` (stereo not drawn), which “hERG current change (%, negative = inhibition) at 10uM” value is on record?
**A.** -29.8%

**Q.** With `COc1cccc(NC(=O)c2csc3c2CCCC3)c1` as the compound, how does the “hERG current change (%, negative = inhibition) at 10uM” value read?
**A.** 23.8%

**Q.** Which “hERG current change (%, negative = inhibition) at 10uM” value does the source give for `O=C(Nc1cc2c3c(c1)CC(=O)N3CCC2)C1CC1` here?
**A.** 9.48%

**Q.** How did the “hERG current change (%, negative = inhibition) at 10uM” value turn out when `COC(=O)CSc1nc(NC(C)C)nc(N(C)C)n1` was run?
**A.** 11.2%

**Q.** How did the “hERG current change (%, negative = inhibition) at 10uM” value turn out when `COc1cc(/C=N/Nc2nc3ccccc3[nH]2)cc(OC)c1O` was run?
**A.** -55.9%

**Q.** `C=CCNC(=O)C(=O)c1cccn1-c1ccsc1C(=O)OC` was tested. Which “hERG current change (%, negative = inhibition) at 10uM” value did it give?
**A.** 8.72%

**Q.** How did the “hERG current change (%, negative = inhibition) at 10uM” value turn out when `CCOC(=O)CSc1nnc(Cc2ccccc2)n1CC1CCCO1` (stereo not drawn) was run?
**A.** 5%

**Q.** For `COC(=O)Cc1c(O)ccn(Cc2cccc3ccccc23)c1=O`, which “hERG current change (%, negative = inhibition) at 10uM” value is on record?
**A.** -1.37%

**Q.** With `O=C(NCCc1ccc(F)cc1)c1ccc2c(=O)n3c(nc2c1)CCC3` as the compound, how does the “hERG current change (%, negative = inhibition) at 10uM” value read?
**A.** -45.7%

**Q.** For `CCN(CC)C(=O)C1CCN(CC2CC=CCC2)CC1` (stereo not drawn), which “hERG current change (%, negative = inhibition) at 10uM” value is on record?
**A.** -0.0716%

**Q.** With `CCOC(=O)C1C(=O)CC(C)(O)C(C(=O)OCC)C1c1ccc([N+](=O)[O-])cc1` (stereo not drawn) as the compound, how does the “hERG current change (%, negative = inhibition) at 10uM” value read?
**A.** -8.06%

**Q.** Which “hERG current change (%, negative = inhibition) at 10uM” value does the source give for `COc1cc(C2c3c(oc4ccccc4c3=O)C(=O)N2c2ccc(C)cn2)ccc1O` (stereo not drawn) here?
**A.** -1.3%

**Q.** With `Cc1onc(-c2c(F)cccc2Cl)c1C(=O)OCC(=O)NC(N)=O` as the compound, how does the “hERG current change (%, negative = inhibition) at 10uM” value read?
**A.** 6.22%

**Q.** For `COc1cc(OC)c(N(C)C(=O)CCNC(=O)Cn2cnc3ccccc3c2=O)cc1Cl`, which “hERG current change (%, negative = inhibition) at 10uM” value is on record?
**A.** -25.3%

**Q.** `c1cc(CNCC2CCCO2)ccn1` (stereo not drawn) was tested. Which “hERG current change (%, negative = inhibition) at 10uM” value did it give?
**A.** 22.8%

**Q.** For `CCCCn1c(N)c(N(CC(C)C)C(=O)C2CCCO2)c(=O)[nH]c1=O` (stereo not drawn), which “hERG current change (%, negative = inhibition) at 10uM” value is on record?
**A.** 15.2%

**Q.** With `COc1ccc2oc(C(=O)Nc3nc4ccc(S(C)(=O)=O)cc4s3)c(C)c2c1` as the compound, how does the “hERG current change (%, negative = inhibition) at 10uM” value read?
**A.** 7.81%

**Q.** How did the “hERG current change (%, negative = inhibition) at 10uM” value turn out when `CCNc1nc(NCC)n2c(SCC(=O)Nc3ccc(OC)c(OC)c3)nnc2n1` was run?
**A.** 16.8%

**Q.** `O=C(CNc1cc(S(=O)(=O)N2CCCC2)ccc1OCC(F)(F)F)Nc1cccc(C(F)(F)F)c1` was tested. Which “hERG current change (%, negative = inhibition) at 10uM” value did it give?
**A.** -15.7%

**Q.** `O=c1cc(NS(=O)(=O)c2ccccc2)nc(SCc2ccccc2Cl)[nH]1` was tested. Which “hERG current change (%, negative = inhibition) at 10uM” value did it give?
**A.** 6.99%

**Q.** How did the “hERG current change (%, negative = inhibition) at 10uM” value turn out when `O=C(NC(=S)Nc1cccc(Cl)c1N1CCCCC1)c1cccs1` was run?
**A.** 22.7%

**Q.** With `CC(C)[C@H](NC(=O)c1ccccc1Cl)C(=O)OCC(=O)NC(=O)NC1CCCC1` as the compound, how does the “hERG current change (%, negative = inhibition) at 10uM” value read?
**A.** 6.08%

**Q.** For `O=C(CN1CCN(C(c2ccccc2)c2ccccc2)CC1)NC(=O)NCc1ccco1`, which “hERG current change (%, negative = inhibition) at 10uM” value is on record?
**A.** -5.1%

**Q.** For `Cc1cccc(C)c1NC(=O)CSc1nnnn1-c1ccc(C(=O)O)cc1`, which “hERG current change (%, negative = inhibition) at 10uM” value is on record?
**A.** -20.9%

**Q.** `CCc1ccccc1NC(=O)C1CCCN(c2nn3c(=O)cc(C)nc3s2)C1` (stereo not drawn) was tested. Which “hERG current change (%, negative = inhibition) at 10uM” value did it give?
**A.** -0.0691%

**Q.** For `CCOC(=O)C1CCCN(Cc2ccccc2C)C1` (stereo not drawn), which “hERG current change (%, negative = inhibition) at 10uM” value is on record?
**A.** -15.1%

**Q.** `COC(=O)C1=C(c2ccc3ccccc3c2)C[C@@H]2CC[C@H]1N2C(=O)NCCO` was tested. Which “hERG current change (%, negative = inhibition) at 10uM” value did it give?
**A.** 6.99%

**Q.** `Cc1ccc(C(=O)NC2CCC(C)CC2)s1` (stereo not drawn) was tested. Which “hERG current change (%, negative = inhibition) at 10uM” value did it give?
**A.** -2.36%

**Q.** Which “hERG current change (%, negative = inhibition) at 10uM” value does the source give for `Cc1nc(Nc2ccc3c(c2)OCCO3)c2oc3ccccc3c2n1` here?
**A.** -5.62%

**Q.** For `Cc1nnc(NC(=O)CCSc2ccccc2)s1`, which “hERG current change (%, negative = inhibition) at 10uM” value is on record?
**A.** 1.73%

**Q.** For `COc1ccccc1N1CCN(C(=O)C2c3ccccc3Oc3ccccc32)CC1`, which “hERG current change (%, negative = inhibition) at 10uM” value is on record?
**A.** -14.9%

**Q.** How did the “hERG current change (%, negative = inhibition) at 10uM” value turn out when `C[C@H](NC(=O)[C@@H]1CSC2c3ccccc3C(=O)N21)C(=O)NCc1c(F)cccc1Cl` (stereo partly drawn) was run?
**A.** 4.53%

**Q.** How did the “hERG current change (%, negative = inhibition) at 10uM” value turn out when `COc1ccc(-c2noc(CCC(=O)N3CCN(Cc4ccccc4)CC3)n2)cc1` was run?
**A.** -32.8%

**Q.** For `COc1ccccc1N1C(=O)C2C(c3ccccc3F)NN(C(=O)c3ccc(C)cc3)C2C1=O` (stereo not drawn), which “hERG current change (%, negative = inhibition) at 10uM” value is on record?
**A.** -3.72%

**Q.** Which “hERG current change (%, negative = inhibition) at 10uM” value does the source give for `Cc1cc(NC(=O)c2cccs2)ccc1NC(=O)Cc1ccccc1` here?
**A.** 5.7%

**Q.** Which “hERG current change (%, negative = inhibition) at 10uM” value does the source give for `COc1ccc(S(=O)(=O)N2CCC(C(=O)NCc3cccnc3)CC2)cc1C` here?
**A.** 6.12%

**Q.** With `Cc1cc(C(=O)COC(=O)Cc2n[nH]c(=O)c3ccccc23)c(C)n1-c1ccc2c(c1)OCO2` as the compound, how does the “hERG current change (%, negative = inhibition) at 10uM” value read?
**A.** 10.7%
